{"source": "PubChem BioAssay AID504832", "about": "(National Center for Advancing Translational Sciences (NCATS), 2011)", "note": "Among all 310,000 compounds or so, about 18,000 (5.8%) were called active. The inconclusive results got no clear call from the source; some entries with a clear call stand among them for comparison. The call rests on the fitted dose curve; in most records, active means well fitted inhibition curve with a large enough effect; inconclusive means small, poorly fitted or top-dose-only effect, or another doubt; inactive means no such curve, though single readings can be large or run the other way. Potencies of inconclusive entries are left out as doubtful fits. Potency means the concentration at half of the fitted maximal effect; tags describe the fitted curve by direction and shape."}
{"assay": "Primary qHTS for delayed death inhibitors of the malarial parasite plastid, 48 hour incubation", "settings": "P. falciparum luciferase growth in erythrocytes; series mostly up to 28.7 µM", "summary_of_the_method": "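First compound was added to culture medium, then infected red cells at 0.1% parasitemia and 2% hematocrit (final). After incubation at 37 C under 5% CO2, luciferase detection reagent was dispensed and light output recorded.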"}
{"compound": "CC(C)Oc1ccc(C(=O)NC(=S)N2CCOCC2)cc1", "Potency": "inactive"}
{"compound": "OCCC1CN(Cc2cc3c(cc2Cl)OCO3)CCN1C1CCCCC1", "note": "(stereo unspecified)", "Potency": "inconclusive [inhibitor, full curve, poor fit]"}
{"compound": "Cc1nn(C)c(Cl)c1C(=O)NCC(=O)Nc1ccc(C(C)C)cc1", "Potency": "inconclusive [inhibitor, single point]"}
{"compound": "CC(C)(C)c1nc(CN2CCOCC2)ccc1O", "Potency": "inconclusive [inhibitor, partial curve, poor fit]"}
{"compound": "Cc1nc(Cl)sc1C(=O)Nc1ccc(Cl)cc1", "Potency": "inactive"}
{"compound": "Cc1ccc(C(=O)NCCc2nc3ccccc3[nH]2)cc1[N+](=O)[O-]", "Potency": "inconclusive [inhibitor, single point]"}
{"compound": "COc1ccccc1CNC(=O)c1oc2ccc(S(=O)(=O)N3CCCC3)cc2c1C", "Potency": "active: 2.94 µM"}
{"compound": "CCN(CC)C(=O)CSc1nc2ccccc2c(=O)n1-c1cccc(OC)c1", "Potency": "inconclusive [inhibitor, partial curve]"}
{"compound": "CCN1C(=O)[C@H]2[C@@H](c3ccc(SC4CCCCC4)cc3)N3CCCC[C@@]3(C(=O)OC)[C@H]2C1=O", "Potency": "inconclusive [inhibitor, single point]"}
{"compound": "COc1ccc(-c2cc(=O)c3cc(O)ccc3o2)cc1", "Potency": "inactive"}
{"compound": "Cc1ccc(S(=O)(=O)N(C)Cc2nc(-c3ccccn3)no2)cc1", "Potency": "inactive"}
{"compound": "Cn1c(N)c(C(=O)Nc2c(Cl)cccc2Cl)sc1=S", "Potency": "inconclusive [inhibitor, full curve, poor fit]"}
{"compound": "CC(=O)N1CCN(Cc2nc3cc([N+](=O)[O-])ccc3n2C)CC1", "Potency": "inactive"}
{"compound": "Cc1ccc(-c2nnc(N3CCN(C(=O)c4cccs4)CC3)c3ccccc23)cc1", "Potency": "active: 8.28 µM"}
{"compound": "CCOc1ccccc1C(=O)N/N=C/c1cccc2cccnc12", "Potency": "inconclusive [inhibitor, partial curve, poor fit]"}
{"compound": "CCOc1ccc(CCNC(=O)CCNS(=O)(=O)c2ccc(Br)cc2)cc1OCC", "Potency": "inactive"}
{"compound": "Cn1c(SCC(=O)O)nnc1-c1ccc2ncccc2c1", "Potency": "inactive"}
{"compound": "O=C(NCCc1ccccc1)c1ccc(NCC2CCCO2)c([N+](=O)[O-])c1", "note": "(stereo unspecified)", "Potency": "inactive"}
{"compound": "Cc1ccc(S(=O)(=O)NCCN2CCOCC2)s1", "Potency": "inactive"}
{"compound": "CC(=O)c1ccc(S(=O)(=O)Oc2ccc(-c3ccc(C(=O)O)cc3)cc2)cc1", "Potency": "inactive"}
{"compound": "Cc1ccc(C(=O)NC2CC(C)(C)NC(C)(C)C2)cc1S(=O)(=O)N1CCCCC1", "Potency": "inconclusive [inhibitor, partial curve, poor fit]"}
{"compound": "CCCCn1c(NC(=O)C2CCCCC2)nc2ccccc21", "Potency": "inconclusive [inhibitor, partial curve, poor fit]"}
{"compound": "O=C(Nc1ccccc1)N1CCC(O)(c2cccc(C(F)(F)F)c2)CC1", "Potency": "inactive"}
{"compound": "COCCNC(=S)N/N=C(\\C)c1ccc(Cl)c(Cl)c1", "Potency": "inconclusive [inhibitor, single point]"}
{"compound": "CCN(Cc1ccc(OC)c(COC)c1)CC1CCCN(CCc2cccc(OC)c2)C1", "note": "(stereo unspecified)", "Potency": "inconclusive [inhibitor, full curve, poor fit]"}
{"compound": "O=C(Cn1nc(-c2ccccc2)nc1-c1ccccc1)OC1CCCCC1", "Potency": "inconclusive [inhibitor, single point]"}
{"compound": "C/C(=N\\NC(=O)c1ccc(N(C)C)cc1)c1ccc(C)c(C)c1", "Potency": "inactive"}
{"compound": "COc1ccccc1OCCNC(=O)c1cc(C2CC2)nc2c1cnn2C(C)C", "Potency": "inconclusive [inhibitor, single point]"}
{"compound": "O=C(CC(c1ccc(F)cc1)c1ccco1)Nc1nccs1", "note": "(stereo unspecified)", "Potency": "inconclusive [inhibitor, partial curve]"}
{"compound": "COCCCn1c(SCC(=O)Nc2ccc(NC(=O)c3ccco3)c(OC)c2)nc2ccccc2c1=O", "Potency": "inconclusive [inhibitor, full curve]"}
{"compound": "C=CCNc1nc(N)c(C(=C(C#N)C#N)c2ccc(Br)cc2)s1", "Potency": "inconclusive [inhibitor, partial curve]"}
{"compound": "Cc1ccc(C(=O)NCC(=O)N2CCCCCC2)cc1", "Potency": "inactive"}
{"compound": "Cc1ccc(N=C2S/C(=C\\c3cn(CC(=O)O)c4ccccc34)C(=O)N2C)cc1", "Potency": "inconclusive [inhibitor, single point]"}
{"compound": "CC1=C(C(=O)N2CCOCC2)C(c2cc(C)ccc2C)NC(=S)N1", "note": "(stereo unspecified)", "Potency": "inconclusive [inhibitor, full curve]"}
{"compound": "CCOC(=O)C1=C(Cc2ccc(OC)cc2)C(=O)c2ccccc2C1=O", "Potency": "active: 4.65 µM"}
{"compound": "O=C(Nc1nccs1)c1ccc(S(=O)(=O)N2CCCCC2)cc1", "Potency": "inconclusive [inhibitor, partial curve, poor fit]"}
{"compound": "O=C(COC(=O)CCSc1ccc(Cl)cc1)NCc1ccco1", "Potency": "inactive"}
{"compound": "CN(Cc1ccc(Cl)cc1)C(=O)CNC(=O)C12CC3CC(CC(C3)C1)C2", "Potency": "active: 9.28 µM"}
{"compound": "O=C(/C=C/c1ccc(Br)o1)OCc1nc2ccsc2c(=O)[nH]1", "Potency": "inactive"}
{"compound": "CCN1CCC(NCC2CCCCC2)CC1", "Potency": "inconclusive [inhibitor, single point]"}
{"compound": "COc1ccc(-c2ncncc2-c2ccccc2)c(O)c1", "Potency": "inconclusive [inhibitor, partial curve, poor fit]"}
{"compound": "O=C(NC1CCCC1)c1cnn2c(C(F)(F)F)cc(-c3ccco3)nc12", "Potency": "inconclusive [inhibitor, partial curve, poor fit]"}
{"compound": "Cc1ccc2nc(-c3ccc(NS(=O)(=O)c4ccc(F)cc4)cc3)sc2c1", "Potency": "inactive"}
{"compound": "COc1ccc(Br)cc1C1SCCN1S(C)(=O)=O", "note": "(stereo unspecified)", "Potency": "inactive"}
{"compound": "CC(c1nccs1)N(C)C(=O)c1ccc(OC2CCN(CCc3ccccc3)CC2)cc1", "note": "(stereo unspecified)", "Potency": "inconclusive [inhibitor, single point]"}
{"compound": "CN(C(=O)CCN1C(=O)S/C(=C\\c2ccccc2)C1=O)C1CCS(=O)(=O)C1", "note": "(stereo unspecified)", "Potency": "inconclusive [inhibitor, full curve, poor fit]"}
{"compound": "N#CC[n+]1cc(-c2ccc(Cl)cc2)n2c1CCC2", "Potency": "inconclusive [inhibitor, single point]"}
{"compound": "Cn1nc(C(F)(F)F)c(-c2cccc(C(F)(F)F)c2)c1NC(=O)c1cccnc1", "Potency": "inconclusive [inhibitor, partial curve]"}
{"compound": "Cc1ccc(S(=O)(=O)CC(=O)Nc2cc(C)on2)cc1", "Potency": "inconclusive [inhibitor, full curve]"}
{"compound": "C[N+]12CCC(CC1)C(C(O)(c1cccc(Cl)c1)c1cccc(Cl)c1)C2", "note": "(stereo unspecified)", "Potency": "active: 13.1 µM"}
{"compound": "O=[N+]([O-])c1ccc(N2CCOCC2)cc1SCc1ccco1", "Potency": "inactive"}
{"compound": "CO/N=C(/C(=O)N[C@@H]1C(=O)N2C(C(=O)O)=C(CSC(=O)c3ccco3)CSC12)c1csc(N)n1", "note": "(stereo partly specified)", "Potency": "inconclusive [inhibitor, single point]"}
{"compound": "CN(C(=O)c1ccccc1C(=O)OCC(=O)Nc1ccc(OC(F)F)cc1)c1ccccc1", "Potency": "inconclusive [inhibitor, single point]"}
{"compound": "Cc1ccc(S(=O)(=O)NCc2ccc3c(c2)cc(C)n3C)cc1", "Potency": "inconclusive [inhibitor, partial curve, poor fit]"}
{"compound": "O=C(N=Nc1c(O)n(Cc2ccccc2)c2ccccc12)c1ccncc1", "Potency": "active: 11.7 µM"}
{"compound": "CCCc1n(CC(O)COCc2ccccc2)c2ccccc2[n+]1C", "note": "(stereo unspecified)", "Potency": "active: 3.29 µM"}
{"compound": "CCCCCc1nc2c(=O)n(C)c3ccccc3c2o1", "Potency": "inconclusive [inhibitor, partial curve]"}
{"compound": "Cc1ccc(S(=O)(=O)Nc2ccccc2C(=O)NCc2cccnc2)cc1", "Potency": "inconclusive [inhibitor, single point]"}
{"compound": "COc1ccc(Br)cc1C(=O)NC(=S)Nc1c(C)n(C)n(-c2ccccc2)c1=O", "Potency": "inactive"}
{"compound": "CCOc1ccc(-c2cc(C)[n+](CCO)c(-c3ccc(OCC)cc3)c2)cc1", "Potency": "inconclusive [inhibitor, full curve]"}
{"compound": "Cc1cc(C2=NNC(=NC3CC3)SC2)c(C)n1-c1ccccc1F", "Potency": "inconclusive [inhibitor, single point]"}
{"compound": "COc1ccc(S(=O)(=O)N(C)C)cc1NC(=O)CCCSc1ccccc1", "Potency": "inconclusive [inhibitor, partial curve, poor fit]"}
{"compound": "Cc1cc(C)n(-c2ccc(NC(=O)C3CCN(Cc4ccccn4)CC3)cc2)n1", "Potency": "inconclusive [inhibitor, partial curve, poor fit]"}
{"compound": "CCCC1(C(=O)OCC)NC(c2ccc(N(C)C)cc2)C2C(=O)N(c3ccc4c(c3)OCCO4)C(=O)C21", "note": "(stereo unspecified)", "Potency": "inconclusive [inhibitor, single point]"}
{"compound": "Cc1cc(NC(=O)C(=O)NCCN2CCN(C(=O)c3cccs3)CC2)ccc1Br", "Potency": "inconclusive [inhibitor, single point]"}
{"compound": "NC(=O)C1CCN(CC(=O)Nc2ccccc2N2CCOCC2)CC1", "Potency": "inactive"}
{"compound": "Clc1ccc2oc(-c3ccccc3)cc(=NCCCN3CCOCC3)c2c1", "Potency": "active: 4.65 µM"}
{"compound": "COc1ccc(C2CC(c3ccc(C)cc3)=NN2C(=O)c2ccccc2)cc1", "note": "(stereo unspecified)", "Potency": "inconclusive [inhibitor, partial curve]"}
{"compound": "CCN(CC)S(=O)(=O)c1ccc(N2CCOCC2)c(NC(=O)COc2ccc(C#N)cc2)c1", "Potency": "inconclusive [inhibitor, single point]"}
{"compound": "CC(=O)N1CCc2c(sc(NC(=O)C3CCCCC3)c2C(N)=O)C1", "Potency": "inactive"}
{"compound": "CCC(C)[C@H](NC(=O)NCc1ccc(Cl)cc1)C(=O)O", "note": "(stereo partly specified)", "Potency": "inconclusive [inhibitor, single point]"}
